From PubChem BioAssay AID1768 (National Center for Advancing Translational Sciences (NCATS), 2009)
In all, about 270,000 compounds went through this assay and about 620 (0.23%) were called active. This list was built around the results that the source calls inconclusive (neither active nor inactive); the mix of calls is not that of the screen. Calls follow the shape of the dose curve; as a rule, active = well fitted inhibition curve with a large enough effect in the polarisation, with a control signal flat (not every such curve was filed as active); inconclusive = small, poorly fitted or top-dose-only effect, or effect the other way, or a change in a side signal; inactive = no such curve, though single readings can be large or run the other way; the % refers to the polarisation. Potencies beside an inconclusive call are fits to weak or partial responses and may not hold up. “Side channel” marks fits to a control or component signal instead of the main read-out.

Target: Menin (Homo sapiens) (UniProt O00255)
Experiment: qHTS Assay for Inhibitors Targeting the Menin-MLL Interaction in MLL Related Leukemias: Competition With Texas Red Labeled MLL-derived Mutant Peptide; as to FP activity change, negative = inhibition: % of control where 0% means no effect
Conditions: fluorescence polarization; FP activity change, negative = inhibition: at 61.6 µM (top of the series)
Potency is read from the fitted curve at half-maximal effect; tags tell the direction and shape of the fitted curve or compound fluorescence and quenching.

Sequence of UniProt O00255 (O00255 whole entry, looked up): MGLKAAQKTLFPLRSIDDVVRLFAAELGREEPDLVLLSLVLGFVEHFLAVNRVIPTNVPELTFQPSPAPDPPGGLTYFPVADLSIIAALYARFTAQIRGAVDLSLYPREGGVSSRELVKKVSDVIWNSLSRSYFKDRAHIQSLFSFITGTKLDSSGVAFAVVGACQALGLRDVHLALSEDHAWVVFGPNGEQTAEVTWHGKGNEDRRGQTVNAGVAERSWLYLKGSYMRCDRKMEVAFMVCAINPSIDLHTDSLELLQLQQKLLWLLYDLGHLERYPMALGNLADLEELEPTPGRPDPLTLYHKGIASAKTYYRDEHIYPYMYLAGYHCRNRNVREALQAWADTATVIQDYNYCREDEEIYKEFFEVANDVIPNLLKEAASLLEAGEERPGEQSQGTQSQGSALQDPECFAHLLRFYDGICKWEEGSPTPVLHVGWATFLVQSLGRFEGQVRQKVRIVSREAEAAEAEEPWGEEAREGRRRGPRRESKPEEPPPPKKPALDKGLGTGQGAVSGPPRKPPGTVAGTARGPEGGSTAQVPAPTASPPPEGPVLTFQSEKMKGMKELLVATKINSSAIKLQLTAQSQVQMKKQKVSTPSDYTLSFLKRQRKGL

Potency, inconclusive:
CCOc1ccc(-n2nc3cc(C)c(N)cc3n2)cc1 22.4 µM [quencher, side channel, single point]
O=C1CC(c2ccccc2Cl)=NN(c2ncnc3ccccc23)C1=O 28.2 µM [quencher, side channel, single point]
COc1ccccc1-n1c(=O)c2c3c(sc2n2c(SC(C)C)nnc12)CCC3 2.24 µM [inhibitor, full curve, poor fit]
Cc1cc(C)nc(SCCC(=O)Nc2ccc(F)cc2)n1 8.91 µM [inhibitor, partial curve]
COc1ccc(CN2C(=O)c3ccccc3C2C(=O)NC2CCC(C)CC2)c(OC)c1 (stereo unspecified) 11.2 µM [fluorescent, side channel, partial curve]
CCc1ccccc1NCC(=O)Nc1ccc(Cl)c(C(F)(F)F)c1 28.2 µM [quencher, single point]
COc1cccc2cc3c(=O)oc4ccccc4c3nc12 14.1 µM [quencher, partial curve]
CCCCOC(=O)CSc1nc(N)c(C#N)c(-c2ccc(OC)cc2)c1C#N 25.1 µM [quencher, side channel, single point]
Cc1c(C(=O)N/N=C/c2ccc(-c3ccccc3[N+](=O)[O-])o2)sc(N)c1C#N 25.1 µM [quencher, side channel, partial curve]
CC(C(=O)Nc1ccccc1-c1ccccc1)N1CCN(Cc2ccccc2)CC1 (stereo unspecified) 2.24 µM [fluorescent, side channel, full curve]
Cc1ccc(NC(=O)[C@H](C)NC(=O)C2CCN(C(=O)[C@H](CC(C)C)NC(=O)OC(C)(C)C)CC2)cc1 6.31 µM [inhibitor, full curve, poor fit]
Cc1c(C(=O)Nc2nonc2-c2ccc(F)cc2)oc2ccc(F)cc12 20 µM [quencher, side channel, partial curve]
CC(C)c1cccc(C(C)C)c1NC(=O)CNCC(O)c1ccccc1 (stereo unspecified) 15.8 µM [fluorescent, side channel, partial curve]
COc1cc(NC(=O)c2ccccc2NS(=O)(=O)c2ccc(Cl)s2)cc(OC)c1 14.1 µM [quencher, side channel, partial curve]

FP activity change, negative = inhibition, inactive:
COC(=O)c1ccccc1S(=O)(=O)N1CCc2nc(COc3ccccc3)c3c(c2C1)CO[C@@H](C)C3 -8.23% [at 11.7 µM]
COc1ccc(CNC(=O)c2ccc[nH]2)cc1 25.8%
